Results: the supplement of paper PMC4166925
± gives the standard deviation of the averaged measurements. Whole data set: some 33,000 sequences, median “E-score (dimensionless, -0.5 to 0.5)” near -0.046, cut for the highest 2% near 0.36. The list shows a part of the results.

System: T1, SpTbr T-box DNA-binding domain (GST fusion)
T1 sequence: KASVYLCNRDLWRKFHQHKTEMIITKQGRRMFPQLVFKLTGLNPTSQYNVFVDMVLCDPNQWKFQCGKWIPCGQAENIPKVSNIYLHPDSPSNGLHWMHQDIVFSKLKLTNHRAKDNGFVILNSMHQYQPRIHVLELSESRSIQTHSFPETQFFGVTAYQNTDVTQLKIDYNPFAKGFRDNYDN
Test: PBM E-score of 8-mer (E-score (dimensionless, -0.5 to 0.5)); Tbr is Tbrain of the sea star Patiria miniata (Pm) or the sea urchin Strongylocentrotus purpuratus (Sp); higher = stronger binding preference; most listed sequences are background and not binding sites
Settings: the construct has about 5 more residues each side
Experimental: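 Universal protein-binding microarray (Agilent AMADID 016060, 60-bp probes with a 35-bp variable region) incubated with 200 nM GST-fused Strongylocentrotus purpuratus Tbr T-box DNA-binding domain (residues 362-554) in PBS pH 7.5. Scored for every ungapped 8-mer (given with its reverse complement) as E-score (range -0.5 to 0.5; >0.45 counts as bound) and Z-score of median probe intensity. Two replicate arrays (datasets 1 and 2).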
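Further: protein at 200 nM in PBS on universal double-stranded arrays.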

| Sequence | PBM E-score of 8-mer |
| --- | --- |
| AACTTACC | -0.026 ± 0.0042 |
| GACTAAAA | -0.128 ± 0.062 |
| CTAACAAC | 0.348 ± 0.029 |
| GTTTCCAA | -0.0728 ± 0.051 |
| AGTCCCTA | -0.138 ± 0.034 |
| GGGTCAAA | -0.256 ± 0.084 |
| ATGCGCAG | -0.191 ± 0.0042 |
| ATAGGATA | -0.229 ± 0.011 |
| CGGGGCGC | 0.111 ± 0.036 |
| ACGGCGGG | -0.0323 ± 0.039 |
| GGAGCAAA | -0.162 ± 0.071 |
| CAAGCCTC | -0.0517 ± 0.044 |
| TTCAGAAA | -0.292 ± 0.024 |
| AACAGGCC | -0.0465 ± 0.036 |
| ATGTAATG | -0.284 ± 0.014 |
| CCAAACCC | -0.078465 ± 7.1e-06 |
| ACCTCAAT | -0.102 ± 0.016 |
| TAATTGGA | 0.0699 ± 0.024 |
| AAGTTTCG | -0.142 ± 0.013 |
| AAGTGATA | 0.288 ± 0.043 |
| AGTACTTG | 0.00872 ± 0.051 |
| CGAATATA | -0.171 ± 0.04 |
| CGATCAGA | -0.0767 ± 0.051 |
| CACGGAGA | -0.0446 ± 0.025 |
| AACATGTT | 0.0214 ± 0.024 |

| Sequence | PBM E-score of 8-mer |
| --- | --- |
| CGGGCACA | 0.073 ± 0.043 |
| CTCCAGGA | -0.0597 ± 0.01 |
| GCCGATAA | 0.0286 ± 0.1 |
| CGACCGCC | -0.0506 ± 0.061 |
| TAAAATCA | 0.0847 ± 0.029 |
| GTTAAGTA | 0.117 ± 0.05 |
| CTCATATA | -0.0945 ± 0.032 |
| CGCATCCC | 0.0091 ± 0.11 |
| AATATCGA | -0.0563 ± 0.022 |
| CACGGGAG | -0.0883 ± 0.02 |
| CAGCCGAA | -0.299 ± 0.039 |
| ACGGGCCT | -0.296 ± 0.0042 |
| CGCCGGTA | -0.00991 ± 0.076 |
| AAACTATT | -0.123 ± 0.063 |
| GATCCGGC | -0.187 ± 0.079 |
| CGCGAAAC | 0.344 ± 0.0048 |
| CGTACGTA | -0.114 ± 0.0038 |
| AGCGCAGA | -0.0856 ± 0.07 |
| GCATTCCA | -0.141 ± 0.0076 |
| ATGGTGAA | 0.0718 ± 0.0071 |
| AAAACTAA | -0.0381 ± 0.053 |
| CTGATGCA | 0.0385 ± 0.021 |
| ATGAATCC | 0.00992 ± 0.056 |
| ATCTTTAG | -0.022 ± 0.032 |
| CCACTCGG | 0.0776 ± 0.073 |

| Sequence | PBM E-score of 8-mer |
| --- | --- |
| TATACGCA | 0.00075 ± 0.05 |
| AGTCGCGC | 0.258 ± 0.038 |
| CCGATGAC | -0.015 ± 0.015 |
| CGTCCTGC | -0.234 ± 0.0096 |
| CGATGACC | 0.112 ± 0.026 |
| ACAGCGAT | -0.148 ± 0.021 |
| ACCAATTC | 0.00139 ± 0.042 |
| CGGCTCCA | -0.0313 ± 0.029 |
| ATTCCGCC | -0.151 ± 0.015 |
| CAAACAGA | -0.0976 ± 0.11 |
| CCAGTGCG | 0.176 ± 0.0042 |
| CATGTTGC | 0.0531 ± 0.0027 |
| ATCTAGGA | -0.206 ± 0.0076 |
| ATGATAAG | -0.12 ± 0.057 |
| AATAAGGT | 0.0316 ± 0.053 |
| ACAAGCGT | 0.13 ± 0.036 |
| CAGGTCGG | 0.0973 ± 0.0072 |
| ACCACTTA | -0.0351 ± 0.051 |
| GCAGGAGA | -0.0948 ± 0.0069 |
| CTATCCGC | 0.00122 ± 0.06 |
| GACCCAGC | -0.0512 ± 0.053 |
| CTTATTGA | -0.232 ± 0.048 |
| ATACTACG | -0.142 ± 0.022 |
| CAGCCATC | -0.0868 ± 0.0053 |
| AGCGGGCG | 0.0665 ± 0.011 |

| Sequence | PBM E-score of 8-mer |
| --- | --- |
| ACCCGTAT | 0.0916 ± 0.0027 |
| GCGTCTAC | 0.0423 ± 0.02 |
| AGATTCTA | -0.236 ± 0.032 |
| AATTAAAC | -0.0463 ± 0.12 |
| CAAAGTAC | -0.111 ± 0.1 |
| CACGAATA | 0.124 ± 0.062 |
| AGGCTTAG | -0.23 ± 0.044 |
| GCAAGGAA | 0.0204 ± 0.0047 |
| AGATGGGC | -0.154 ± 0.012 |
| TAGTAATA | -0.113 ± 0.019 |
| ACTACCAT | -0.136 ± 0.036 |
| ACTAGGGA | -0.0228 ± 0.02 |
| AAGCTTAT | -0.225 ± 0.049 |
| AACAACAC | 0.373 ± 0.013 |
| AAGAGACT | -0.138 ± 0.0053 |
| CCATTCGG | -0.2291 ± 0.002 |
| CTCGGTAA | -0.0319 ± 0.0046 |
| AGATATCT | -0.153 ± 0.082 |
| CGAAACCA | 0.108 ± 0.038 |
| ACCGATAT | -0.155 ± 0.0099 |
| CATCAATA | -0.1151 ± 2.1e-05 |
| AACATTAC | -0.134 ± 0.049 |
| CGAACCCG | 0.0328 ± 0.0017 |
| CAATAGGA | -0.3222 ± 0.0015 |
| ACAAACGC | 0.0188 ± 0.054 |

| Sequence | PBM E-score of 8-mer |
| --- | --- |
| ACGCCGAA | -0.0237 ± 0.04 |
| ACACCAAT | 0.262 ± 0.0086 |
| ACCAGGAT | -0.096 ± 0.029 |
| CCTCCGGC | -0.116 ± 0.03 |
| CTATATGA | -0.173 ± 0.038 |
| TCCTGACA | 0.13 ± 0.016 |
| CCTCTACG | -0.0662 ± 0.046 |
| GCAGATCA | -0.0781 ± 0.05 |
| ATTATAGG | -0.255 ± 0.027 |
| AAACCAAC | -0.162 ± 0.028 |
| CAAGTGCA | 0.175 ± 0.0078 |
| AATTACAC | 0.227 ± 0.017 |
| ATCGTATA | -0.0973 ± 0.036 |
| GCAATTAC | -0.0514 ± 0.012 |
| TAATCAAA | -0.0519 ± 0.084 |
| AAACCTAT | -0.193 ± 0.084 |
| CAATAAGG | -0.0796 ± 0.057 |
| ACTGACCA | -0.198 ± 0.025 |
| ATGGCGGC | 0.0393 ± 0.086 |
| AGGCAACA | 0.105 ± 0.032 |
| AGGCGGAA | -0.127 ± 0.058 |
| GGGCGGTA | 0.0156 ± 0.066 |
| TCGCACAA | 0.313 ± 0.0099 |
| ATACATTG | -0.111 ± 0.0028 |
| ATGTAGGC | -0.203 ± 0.022 |

| Sequence | PBM E-score of 8-mer |
| --- | --- |
| CGAATTAG | -0.156 ± 0.002 |
| GCGGACTA | -0.122 ± 0.063 |
| CACCTTCG | 0.396 ± 0.017 |
| GGGTATAC | 0.0195 ± 0.045 |
| TCGCTGAA | -0.128 ± 0.034 |
| ATAAGTGG | 0.0506 ± 0.045 |
| AACGTGCG | 0.32 ± 0.0051 |
| CTACTTCA | 0.071 ± 0.0037 |
| CGCACCAC | 0.26 ± 0.029 |
| CCAACCCA | -0.13 ± 0.019 |
| ATTCAGGC | -0.0804 ± 0.043 |
| CCACGGTC | -0.0434 ± 0.1 |
| ACGACCAT | -0.0132 ± 0.016 |
| AAAGGCGA | 0.137 ± 0.077 |
| GGCGCTAC | 0.335 ± 0.013 |
| ACACGGTG | 0.144 ± 0.044 |
| CGGATCGA | -0.191 ± 0.056 |
| GTGCATCA | -0.0126 ± 0.024 |
| AGAGCGTC | 0.0292 ± 0.0018 |
| GGCAGCTA | -0.0501 ± 0.058 |
| AGGTCAAT | -0.202 ± 0.093 |
| CAGCCAAC | 0.106 ± 0.037 |
| CTATATAA | -0.187 ± 0.0075 |
| CAGAACTG | -0.252 ± 0.056 |
| AATATTCT | -0.0507 ± 0.086 |

| Sequence | PBM E-score of 8-mer |
| --- | --- |
| AGCGGTAT | -0.0754 ± 0.086 |
| CGGACCCA | -0.0768 ± 0.03 |
| AAGGCAGG | -0.15 ± 0.031 |
| AACGTGAG | 0.188 ± 0.02 |
| ACTGTACA | -0.025 ± 0.024 |
| TAAAAAAA | 0.036 ± 0.058 |
| GGTTGAGA | 0.0661 ± 0.061 |
| TATCTGGA | -0.031 ± 0.0025 |
| ACTTCTAC | 0.037 ± 0.013 |
| CGCCGACA | 0.291 ± 0.015 |
| CACGCCGC | 0.169 ± 0.023 |
| AGCGTGTC | 0.152 ± 0.072 |
| ATTCCTAG | -0.236 ± 0.011 |
| ACGGCTTG | 0.0249 ± 0.033 |
| CGGTGTGC | 0.0403 ± 0.015 |
| CACCGGCG | 0.0512 ± 0.077 |
| AATACTGT | -0.0131 ± 0.1 |
| AACCTGAT | -0.122 ± 0.016 |
| CCAGCTTA | -0.133 ± 0.035 |
| AATATAAG | -0.368 ± 0.093 |
| GGCAGAGA | -0.193 ± 0.042 |
| TGACGCAA | 0.101 ± 0.067 |
